# ± gives the standard deviation. The full ranking holds about 6,600 sequences; the median of “pre-steady-state target cleavage rate” is about 0.07, and the highest 2% start at about 0.72. Only a part is listed here, and it is no random draw.
# System: MIWI (PIWIL1) piRISC loaded with Kctd7 piRNA (30 nt)
# Experiment: pre-steady-state target cleavage rate (min^-1); MIWI and MILI are mouse PIWI proteins and EfPiwi is from a freshwater sponge; tags in brackets are library labels; higher = faster piRNA-guided slicing of the target
# Details: guide: Kctd7 piRNA 5'p-UGUUAAUCUCUCAGAGAAGGUGACAGUGAU; auxiliary factor: 500 nM mouse GTSF1
# Summary of the method: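 The pre-steady-state cleavage rate was calculated from a burst-and-steady-state fit. Data came from Cleave-'n-Seq, in which […] transcribed, DNA-blocked target RNA library was mixed with 1 nM active affinity-purified piRISC carrying one synthetic guide, with or without 500 nM GTSF1 partner protein, in HEPES–potassium acetate buffer at 33 °C for 0–8 or 0–960 min. Uncleaved targets were sequenced and normalised to depth and to weakly complementary targets, three trials were pooled, and k3 was capped at 0.0001 min^-1.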
# 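Further: 1 nM active piRISC with 0.1 nM target library at 33 °C single turnover.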
row,Sequence,pre-steady-state target cleavage rate
1,UUCACUGUCACCUUCUCUGAGACAUUAUCA,0.0186 ± 0.0051
2,AUCACUGUGACCUUCUCUGAGAGAUAAACA,0.334 ± 0.032
3,AUCACUGUCUGCUUCUCUGAGAGAUUUUGA,0.00782 ± 0.0039
4,UAGUGACAGACCUUCUCUGUGAGAUAAACA,0.012 ± 0.003
5,UUCACUGUCACCUUCUCUAGAGAUUAACA,0.14 ± 0.012
6,UAGACUGUCAGGAUCUCUGAGAGAUUAACA,0.054 ± 0.0074
7,UAGUGACAGACCUUCUCUAAGAGAUUAACA,0.0302 ± 0.0063
8,AUCACUGUCACCUUCUCUGAGAGCUUAACA,0.26 ± 0.024
9,UUCACUGUCAGCUUCUCUGAGAGAUUAAGA,0.122 ± 0.018
10,UAGUGACAGUGGAAGACUGAGUGUUUAACA,< 0.0001
11,UAGUCUGAGACCUUCUCUGAGAGAUUUUGA,0.00468 ± 0.003
12,UACAGUGUCACCUUGUCUGAGAGAUUAACA,0.225 ± 0.033
13,UAGUGACACACACUUCUCUGAGAGAUUAACA,0.163 ± 0.03
14,UAGUGACACAGGUUCUCUGAGAGAUUAACA,0.0143 ± 0.0033
15,UAGUGAGUCACCUUCUCUGACUGAUUAACA,0.0164 ± 0.0051
16,UAGUGUGUCACGUUCUCUCAGAGAUUAACA,0.0527 ± 0.0067
17,UAGUGACUGACCUUCUGUGAGAGAUUAACA,0.172 ± 0.023
18,UUCUCUGUCACCUUCUCUGAGAGAUUAUGA,0.0755 ± 0.016
19,UAGUGACAGUGCUUCUCUGAGACAUAAACA,< 0.0001
20,UAGUGACACACCUUUCUCUGAGAGAUUAACA,0.155 ± 0.012
21,AUCACUGUCACCUUCUCUGAGCAGAUUAACA,0.0104 ± 0.0035
22,UAGACUGUCACGAACUCUGAGAGAUUAACA,0.039 ± 0.007
23,UUCACUGUCAGCUUCUCUGAGAGAUUUUGA,0.0139 ± 0.0051
24,UAGUCUGUCACCUUCUAUGAGAGAUUAACA,0.207 ± 0.013

row,Sequence,pre-steady-state target cleavage rate
1,UACACUGUCUCCUUCUCUGAGAGAUUAUCA,0.165 ± 0.027
2,UACACUGUCACCUUCUCUGAGAGAUUAACA [g2:g28:cont:t1A],0.563 ± 0.039
3,UUCACUGACUCCUUCUCUGAGAGAUUAACA,0.571 ± 0.033
4,UAGUGACUGACCUUCUCUGAGUGAUUAACA,0.0116 ± 0.0056
5,UAGUGACAGACCUUCUCUGAGAGAUUAACA [g2:g21:cont:t1A],0.17 ± 0.015
6,AUCACUGUCACCAUCUCUGAGAGAUUAUGA,0.0692 ± 0.015
7,AUCACUGUCACCAUCUCUGAGAGAUUAAGA,0.184 ± 0.032
8,UUCUCUGUCACCUUCUCUGAGAGAUAUUGA,0.0992 ± 0.024
9,UAGUGAGUUACCUUCUCUGAGAGAUUAACA,0.512 ± 0.032
10,AUCACUGUCACCUUCUCUGAGAGAAAAAGA,0.0146 ± 0.0056
11,UAGUCUGUCUGCUUCUCUGAGAGAUUAUGA,0.00592 ± 0.0022
12,UAGUGAGUCACCUUCUCUGAGAGAAUAAGA,0.0835 ± 0.026
13,UAGUGACAGACUUCUCUGAGAGAUUAACA,0.0115 ± 0.0032
14,UAGUCAGUCACCUUCUCUGAGAGUUUAACA,0.418 ± 0.064
15,UAGACUCACACCUUCUCUGAGAGAUUUUGA,0.0525 ± 0.013
16,UAGUGAGUGUCCUUCUCUGAGAGAUUAACA,0.268 ± 0.025
17,UUCACUCUCACCUUCUCUGAGAGAUUUACA,0.192 ± 0.026
18,UAGUGUGUCACCUUCUGUGAGAGAUUAUGA,0.0169 ± 0.0063
19,UUCACUGUCACCUUCUCUGAGAGAAUAACA,0.331 ± 0.048
20,UAGUGACUAACCUUCUCUGAGAGAUUAACA,0.196 ± 0.012
21,UACACUGUCACCUUCACUCAGAGAUUAACA,0.0464 ± 0.013
22,UAGUGUGUAACCUUCUCUGAGAGAUUAACA,0.349 ± 0.03
23,AUCACUGUCACCUUCCCUGAGAGAUUAACA,0.449 ± 0.064
24,UAGUGACACUCCUUCUCUGUGAGAUUAACA,0.0537 ± 0.0069

row,Sequence,pre-steady-state target cleavage rate
1,AUCCACUGUCACCUUCUCUGAGAGAUUAACA,0.712 ± 0.046
2,UUCACUGAGUCCUUCUCUGAGAGAUAUUGA,0.00996 ± 0.0042
3,AUCUCUGACACCUUCUCUGAGAGAUUAACA,0.558 ± 0.021
4,UUCACUGUCACCUUCUCUGACAGAUUUUGA,0.00611 ± 0.003
5,UAGUGAGUCACCAUUCUCUGAGAGAUUAACA,0.538 ± 0.039
6,UAGACUGUGACCUUCUCUCAGAGAUUAACA,0.0671 ± 0.0057
7,UAGUGUGUCACCUUCUCUAAGAGAUUAACA,0.34 ± 0.036
8,UAGUGUGUCACGUUGUCUGAGAGAUUAACA,0.317 ± 0.025
9,UAGUGUGUCAGGUUCUCUGAGAGAUUAACA,0.394 ± 0.04
10,UAGUCUGUCACCUUCUCUGAGAGAAAAAGA,0.0134 ± 0.0058
11,UUCACUGUCACCUUCUCACAGAGAUUAACA,0.0193 ± 0.0059
12,UAGACUGUCACCUUCUGUGAGAGAUUUUGA,0.0328 ± 0.01
13,UAGACUGUCACCUUCUCUGAGAGAUUAUACA,0.267 ± 0.027
14,UACACUGUCACCUACUCUGAGAGAUUAAGA,0.117 ± 0.019
15,UAGUGUGUCACCUUCUCAGAGAGAUAAACA,0.097 ± 0.016
16,UUCACUGUCUCCUUCUCUGACAGAUUAACA,0.43 ± 0.03
17,AUCACUGUCACGUUCUCUGAGUGAUUAACA,0.0176 ± 0.0033
18,UAGUGUGUCACCAUCUCUCAGAGAUUAACA,0.0562 ± 0.013
19,AUCACUGUGACGUUCUCUGAGAGAUUAACA,0.586 ± 0.039
20,AUCACUGUCACCUUCUCUGUGAGAUUAUGA,0.0436 ± 0.012
21,UUCACUGUCACCUUCUCUGUGAGAUUAUGA,0.025 ± 0.007
22,AUCACUGUCACCUUCUCUGAGAGAUUAAUA,0.45 ± 0.05
23,UUCACUCGUCACCUUCUCUGAGAGAUUAACA,0.78 ± 0.042
24,UUCAGUGUCACCUUCUCAGAGAGAUUAACA,0.386 ± 0.018
